Drawing on PubChem BioAssay AID485344 (National Center for Advancing Translational Sciences (NCATS), 2010), this text covers inhibition for 96 compounds.

Each structure is given as a SMILES string. The campaign covered roughly 340,000 compounds. About 6,900 (2%) were called active. Cut-off read from the data, not from the text of the source: active = inhibition above about 30%; inactive = below that, where a call was filed. Only a part is listed here, and it is no random draw. The source gives no active or inactive call for entries shown without one.

Chain of UniProt P14416 (P14416 whole entry, looked up): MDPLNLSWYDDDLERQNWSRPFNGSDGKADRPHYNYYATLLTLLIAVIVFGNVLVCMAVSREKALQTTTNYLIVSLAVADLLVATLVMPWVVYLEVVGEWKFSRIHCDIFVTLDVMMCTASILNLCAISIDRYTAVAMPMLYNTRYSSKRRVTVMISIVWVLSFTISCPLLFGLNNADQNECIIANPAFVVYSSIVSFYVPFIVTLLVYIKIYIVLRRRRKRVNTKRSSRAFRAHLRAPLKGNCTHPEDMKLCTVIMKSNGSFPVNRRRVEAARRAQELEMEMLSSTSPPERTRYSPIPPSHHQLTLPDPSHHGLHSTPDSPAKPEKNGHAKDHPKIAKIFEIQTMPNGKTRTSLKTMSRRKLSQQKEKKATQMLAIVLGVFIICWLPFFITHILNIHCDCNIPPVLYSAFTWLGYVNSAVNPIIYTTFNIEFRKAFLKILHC

The experiment addresses D(2) dopamine receptor (Homo sapiens) (UniProt P14416). Kind of experiment: HTS Assay for Allosteric Antagonists of the Human D2 Dopamine Receptor: Primary Screen for Antagonists. Note: 0% is about no effect. The settings on record: HEK293 TREx D2 cells, calcium flux, dopamine EC80; at 10 µM; stronger effect = higher value. Put shortly:
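Tetracycline-induced HEK293 T-REx cells expressing D2 force-coupled to calcium signalling were dye-loaded, exposed to compound for 180 s, then challenged with an EC80 of dopamine; calcium flux was followed kinetically for a further 180 s.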
In general terms: A change in cytosolic calcium serves as a functional read-out for many receptors and channels.
A word on the inhibition: it is the relative decrease from the control value, in per cent. Regarding `COc1ccc(S(=O)(=O)NC(C)C)cc1-n1cnnn1`, the inhibition is -4.39%. For `Cc1ccccc1Nc1nnc(-c2ccc(C)c(S(=O)(=O)N3CCN(C)CC3)c2)c2ccccc12`, the inhibition stood at 10.2%. Consider `O=C(Cc1csc2ccccc12)NCc1ccc(F)cc1`, for which the inhibition was found to be 2.43%. In the case of `O=C(Nc1ccc(OC(F)(F)F)cc1)C1CCCN(S(=O)(=O)c2ccc(Br)s2)C1` (stereo unspecified), the inhibition is -3.68%. Consider `Cc1nc2c(c(SCC(=O)Nc3ccccc3C(F)(F)F)n1)CCC2`, for which the inhibition is -14.2%. Turning to `Cc1cc(OC(C)C(=O)N2CCN(CCc3ccccn3)CC2)ccc1Cl` (stereo unspecified), the inhibition is -10%.

As for `Cc1c(F)cccc1NS(=O)(=O)c1cccs1`, the inhibition turned out to be 8.5%.

In the case of `CC(C)N(Cc1ccccc1)C(=O)c1cc2ccc3cccnc3c2[nH]1`, the inhibition was -10.5%. On to `CCOC(=O)C1CCN(C(=O)c2nn(-c3ccc(C)cc3)c(=O)c3c2c2ccccc2n3C)CC1`, for which the inhibition stood at 2.12%. Consider `CCC(CC)C(=O)Nc1ccc(OCc2cc(=O)n3ccc(C)cc3n2)cc1`, for which the inhibition was -14.7%.

With `CCOc1ccccc1N1CC(c2nc3ccccc3n2CCCOc2ccccc2)CC1=O` (stereo unspecified), the inhibition is -0.173%. In the case of `CC(C)(C)c1ccc(C(=O)CSc2n[nH]c(=O)[nH]c2=O)cc1` it was active: 30.7%; in that of `CCCCNC(=O)c1cnc2sc(N3CCCCC3)nn2c1=O`, 3.62%; in that of `COc1ccc(Nc2ncc(C(=O)N3CCN(c4ccc(OC)cc4)CC3)c3ccccc23)cc1`, 9.59%. For the compound `O=C(c1ccc2c(c1)CCN2S(=O)(=O)c1ccc(Cl)cc1)N1CCN(c2ccccc2F)CC1`, the inhibition stood at 7.49%. For the compound `CCOC(=O)c1sc2ncn(CC(=O)Nc3cccc(C)c3)c(=O)c2c1C`, the inhibition came out at 2.07%. Turning to `CCOC(=O)c1[nH]c2ccccc2c1NC(=O)c1c(F)cccc1F`, the inhibition is -3.13%. `O=C(NCc1ccccc1Cl)c1ccc2c(c1)N(Cc1ccccc1)C(=O)c1ccccc1S2`: the inhibition is -28.3%. As to `O=C(Nc1cccc(Cl)c1)C1CCN(c2nc3ccccc3nc2C(F)(F)F)CC1`, the inhibition was 6.68%. In the case of `CCc1cccc(NC(=O)c2cc(-c3ccccc3)n[nH]2)c1` it was -22.3%; in that of `COc1cccc(OCCCn2c(-c3ccc(Cl)cc3)nc3ccccc3c2=O)c1`, -2.01%; in that of `Cc1nnc(N2CCN(c3ccc(Cl)cc3)CC2)c2c1nnn2Cc1ccc(F)cc1`, 2.78%. For the compound `CC(C)C(=O)NC1CC(=O)N(c2ccc3c(c2)OCCO3)C1` (stereo unspecified), the inhibition is -14.9%. Regarding `COc1ccccc1Cn1ccn(CC(=O)Nc2c(C)cc(C)cc2C)c(=O)c1=O`, the inhibition worked out at 10.2%. In the case of `COc1cccc(C(c2sc3nc(-c4ccco4)nn3c2O)N2CCCC2)c1` (stereo unspecified), the inhibition stood at 25.9%. For `Cc1c(C(=O)Nc2cccc(F)c2)sc2nc(-c3cc4ccccc4oc3=O)[nH]c(=O)c12`, the inhibition was -10.8%. On to `COc1ccc(NC(=O)c2c(NCc3cccs3)sc3c2CCCCC3)cc1`, for which the inhibition turned out to be 13.6%. As for `CN(C1CCCCC1)S(=O)(=O)c1ccc(F)c(C(=O)Nc2ccc(C(F)(F)F)cc2)c1`, the inhibition stood at 5.77%.

Consider `Cc1ccc(-n2nc(C)c3c(C)cc(=O)n(CC(=O)Nc4ccc(C(C)C)cc4)c32)cc1`, for which the inhibition is 7.49%. Under `CCc1ccc(NC(=O)C(=O)NCCc2sc(-c3ccc(OC)c(OC)c3)nc2C)cc1` stands 4.58%.

With `CC1CCCCN1C(=O)c1ccc2c(c1)N(Cc1ccc(Cl)cc1)C(=O)c1ccccc1S2=O` (stereo unspecified), the inhibition is -5.83%. As to `CCc1ccc(NC(=O)CSc2nc(-c3ccccc3)no2)cc1`, the inhibition was -4.61%. Turning to `CN(C)S(=O)(=O)N(CC(=O)Nc1ccc(Br)cc1F)c1ccccc1`, the inhibition was -1.99%. `O=C(c1ccc(Br)o1)N1CCN(Cc2ccc3c(c2)OCO3)CC1`: the inhibition was active: 58.4%. In the case of `O=C(Cn1c(SCCOc2ccccc2Cl)nc2ccccc21)N1CCOCC1`, the inhibition worked out at 6.89%.

As to `Fc1ccccc1N1CCN(c2nnc(C(F)(F)F)c3nnn(Cc4ccccc4)c23)CC1`, the inhibition is 3.53%.

For `COc1ccc2c(CNCc3ccco3)c(C(=O)O)n(Cc3ccc(F)cc3Cl)c2c1`, the inhibition is -16.1%.

In the case of `COCCNC(=O)CSc1nc2cc3c(cc2c(=O)n1CCCC(=O)NCCc1ccc(OC)c(OC)c1)OCO3`, the inhibition was -23.9%. Under `CCC(CC)C(=O)Nc1nnc(SCc2cc(=O)c3ccccc3[nH]2)s1` stands 11.7%; under `CCC(C)(C)NC(=O)C1CCC(CNS(=O)(=O)c2ccc3c(c2)CC(C)N3C(C)=O)CC1` (stereo unspecified), -4.89%; under `CCCCNC(=O)CCCN1C(=O)CCn2nc(-c3cccn3C)cc21`, -5.38%. For `COc1cccc(NC(=O)Cn2c(=O)n(-c3cccc(OC)c3)c(=O)c3sc4ccccc4c32)c1`, the inhibition amounted to 0.811%.

`Cc1ccc(Cl)cc1N1CCN(C2(c3ccccc3)C(=O)c3ccccc3C2=O)CC1`: the inhibition was found to be 6.25%.

For `COc1ccc(C)cc1NC(=O)C1CCCN(S(=O)(=O)c2ccc3c(c2)CCCN3C(C)=O)C1` (stereo unspecified), the inhibition is 4.92%. Consider `CCC(C)NS(=O)(=O)c1ccc(N2CCCCS2(=O)=O)cc1` (stereo unspecified), for which the inhibition worked out at 9.19%.

`COc1cccc2c1cc1c(=O)n(CC(=O)N3CCCCC3)nc(C)n12`: the inhibition is 14.9%. On to `Cc1ccc(C(=O)Nc2ccc(C(=O)O)cc2)cc1S(=O)(=O)Nc1ccccc1`, for which the inhibition was -10.8%. For `Cc1ccc(-n2c3c(c(=O)[nH]c2=O)C(NS(=O)(=O)c2ccc(Cl)cc2)(C(F)(F)F)C(=O)N3)cc1` (stereo unspecified), the inhibition is -9.82%. Take `NC(=O)C1CCN(c2ncnc3c2cnn3-c2ccccc2)CC1`: the inhibition is -1.34%.

With `Fc1cccc(NCc2ccccc2-c2nnc(-c3ccccc3Cl)o2)c1`, the inhibition was 27.8%. In the case of `CCOC(=O)c1[nH]c2ccccc2c1NC(=O)c1ccccc1F` it was 13.4%. Consider `Cc1oc2ncnc(N3CCCCC3)c2c1C(=O)NCC1CCN(Cc2cccc(F)c2)CC1`, for which the inhibition was -14.8%.

As to `CCN1CCN(CCCNC(=O)CS(=O)(=O)Cc2nc(-c3cccc(OC)c3)oc2C)CC1`, the inhibition was -1.83%. For `O=C(NCCc1ccccc1)C(=O)NCC(c1ccco1)S(=O)(=O)c1cccs1` (stereo unspecified), the inhibition came to 22.4%. With `COc1ccc(-c2nc(CSc3nncn4c3cc3oc(C)cc34)c(C)o2)cc1`, the inhibition was -5.23%.

For the compound `Cc1ccc(-n2nnc(-c3nc(-c4cccs4)no3)c2N)cc1C`, the inhibition is 7.29%. Under `COc1ccc(OC)c(CCNC(=O)c2ccc3c(c2)c(C)c(C)n3Cc2ccccc2)c1` stands -0.342%; under `COc1cc(NC(=O)CN2C(=O)c3ccccc3Sc3ccc(C(=O)N4CCCC4)cc32)cc(OC)c1`, 16.2%; under `CCOC(=O)c1ccccc1NC(=O)CN1CCCN(Cc2cc(C)ccc2C)S1(=O)=O`, -3.27%.

Turning to `O=C(Cc1cccs1)N(CC1CCCO1)C1(C(=O)NC2CCCCC2)CCCCC1` (stereo unspecified), the inhibition is active: 34%. On to `CCc1cccc(C)c1NC(=O)CCS(=O)(=O)c1cc(Br)cc2c1N(C(=O)C1CC1)CC2`, for which the inhibition was -1.09%. For the compound `CCCc1nn2c(=O)cc(COC(=O)c3cccc(NC(=O)c4cccs4)c3)nc2s1`, the inhibition was -8.21%. In the case of `COc1ccc(C(=O)NCC(c2cccnc2)N2CCN(c3ccccc3)CC2)cc1` (stereo unspecified) it was -4.06%; in that of `O=S(=O)(/C=C/c1ccccc1)Nc1ccc2c(c1)OCO2`, active: 34.3%; in that of `COc1cccc(Cn2c(=O)cc(C)c3c(C)nn(C)c32)c1`, 0.142%. Regarding `Cc1c(C(=O)NCc2ccc(Cl)cc2)sc2nc3n(c(=O)c12)CCCCC3`, the inhibition is 13.1%. Under `COc1ccc(S(=O)Cc2ccc(C(=O)N3CCN(c4cccc(C)c4C)CC3)o2)cc1` (stereo unspecified) stands 6.98%; under `Cc1c(Cl)cccc1NC(=O)Cn1c(=O)n(Cc2ccco2)c(=O)c2sc3ccccc3c21`, 4.84%; under `CCc1nn2c(-c3ccccc3OC)ccnc2c1-c1ccccc1`, 11.5%.

Consider `O=C(CCCCn1c(=O)c2ccccc2n(CC(=O)Nc2cccc(C(F)(F)F)c2)c1=O)NCc1ccc2c(c1)OCO2`, for which the inhibition was -13.2%.

With `CCC(CC)c1nn2c(=O)cc(COc3ccc(NC(=O)c4ccccc4C)cc3)nc2s1`, the inhibition is -2.3%.

As for `COc1cc(NS(=O)(=O)c2ccc(NC(=O)c3cccc(F)c3)cc2)nc(OC)n1`, the inhibition was determined as 5.21%. Regarding `Cc1ccccc1NC(=O)c1ccc2[nH]c(C)c(C)c2c1`, the inhibition is -0.15%. Under `COc1cc(NC(=O)CC2C(=O)OCCN2Cc2ccccc2)cc(OC)c1` (stereo unspecified) stands -10.9%; under `CCC1CN(S(=O)(=O)c2cc(-c3cc(C)no3)ccc2C)c2cc(Cl)ccc2O1` (stereo unspecified), 2.28%; under `Cc1ccccc1Nc1c(-c2ccc(Cl)cc2)nc2c(C)cccn12`, 0.0991%.

As to `CC(C)c1ccc(NC(=O)C2CCN(S(=O)(=O)c3cccc4nonc34)CC2)cc1`, the inhibition was -5.83%. Take `COc1ccc(NC(=O)Cn2c(=O)n(CCc3ccccc3)c(=O)c3c4c(sc32)CCCC4)cc1`: the inhibition was -6.98%.

Take `Cc1ccc(N2C(=O)CSC23C(=O)N(Cc2ccccc2F)c2ccccc23)cc1F` (stereo unspecified): the inhibition was determined as 6.49%. With `CCOC(=O)c1c(NC(=O)c2nc(SCC)ncc2Cl)sc2c1CCCC2`, the inhibition is -2.06%. Under `CC1CCN(CCCCOc2cccc(Br)c2)CC1` stands active: 91.8%. Under `COc1cc2c(=O)c(C(=O)c3ccc(C)c(C)c3)cn(Cc3ccc(F)cc3)c2cc1OC` stands -25.7%; under `Cc1nc(SCC(=O)Nc2ccccc2C)cc(-c2ccccc2)n1`, -11%. On to `Cc1ccccc1NC(=O)CSc1cn(CC(=O)N2CCCCCC2)c2ccccc12`, for which the inhibition is -18.3%.

For `Cc1cccc(NC(=O)C2CCCN(C(=O)Nc3ccc(F)cc3)C2)c1C` (stereo unspecified), the inhibition was active: 36%.

As for `CCSc1nnc2c(n1)OC(c1cc(OC)c(OC)c(OC)c1)Nc1ccccc1-2` (stereo unspecified), the inhibition was determined as 3.92%.

Turning to `CCOc1cc(CNC(=O)Cn2c(=O)c3cccn3c3ccc(F)cc32)cc(OCC)c1OCC`, the inhibition was found to be 5.96%.

`CCOC(=O)c1c(C)[nH]c(C)c1S(=O)(=O)NCC(=O)Nc1ccc(C)c(N(C)C)c1`: the inhibition amounted to 0.12%. Turning to `COc1c(C)cc(Br)cc1C(=O)Nc1ccc(-c2nc3ncccc3o2)cc1`, the inhibition is 13.1%. For the compound `CCOc1ccc(NC(=O)Cn2c(=O)n(-c3cccc(Cl)c3)c(=O)c3c2c2cc(C)ccc2n3C)cc1`, the inhibition came to 20.4%. For `COc1ccc(S(=O)(=O)Nc2cccc(-c3ccc(N4CCC(C)CC4)nn3)c2)c(OC)c1`, the inhibition was found to be 22.5%. In the case of `COc1cc(NC(=O)c2ccc3oc(=O)c(S(=O)(=O)c4ccccc4)cc3c2)cc(OC)c1`, the inhibition came to 24.8%. With `CCOc1cccc(C2c3[nH]c4ccccc4c3CCN2C(=O)CSc2ccccc2)c1` (stereo unspecified), the inhibition stood at 8.3%. As for `Cc1cccc(C(=O)N2CCc3cc(CNC(=O)COc4ccc(Cl)cc4)ccc32)c1`, the inhibition stood at 21.7%. In the case of `Cc1cc(NC(=O)c2cc(-c3ccc(Cl)cc3)on2)n(-c2ccccc2)n1` it was -20.4%; in that of `COC(=O)c1cc2oc3ccccc3c2n1CC(=O)Nc1ccc(C)c(F)c1`, -16.7%.
